# Some of the results follow.
# Biological target: T1, OsWOX13 (Oryza sativa, UniProt Q5QMM3 1-267)
# T1 sequence: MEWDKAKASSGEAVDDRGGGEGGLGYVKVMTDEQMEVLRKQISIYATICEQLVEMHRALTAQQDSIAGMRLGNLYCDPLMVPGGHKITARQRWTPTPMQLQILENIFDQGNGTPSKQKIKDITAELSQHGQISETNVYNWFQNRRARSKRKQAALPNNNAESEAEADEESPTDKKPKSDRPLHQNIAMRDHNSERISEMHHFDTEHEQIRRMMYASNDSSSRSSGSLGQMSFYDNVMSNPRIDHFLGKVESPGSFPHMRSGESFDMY
# Experiment: protein-binding microarray (RPBM); PBS, 2% BSA, 51.3 ng/ul salmon testes DNA, 50 uM zinc acetate, 200 nM TF, 25 C, 1 h; high values mean tight binding
# Details: protein: recombinant; tags: N-terminal polyhistidine and DsRed monomer fusion (pET32a); label: CyDye5-dUTP incorporated in the synthesized complementary strand; 3' TTTTT single-stranded linker to array surface; dsDNA, one strand shown
# In short: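 The binding signal for each feature is its fluorescence intensity in arbitrary units. An Axon 4000B scanner was used to read a custom Agilent array that had been made double-stranded with Cy5-dUTP primer extension, blocked with 2% BSA, incubated at 25 °C for 1 h with 200 nM protein in PBS, 2% BSA, salmon testes DNA and 50 µM zinc acetate, and washed. The protein was an N-terminal polyhistidine–DsRed transcription factor fusion from E. coli BL21-CodonPlus, purified on Ni–NTA.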
row,Sequence,binding signal
1,CTCAAATAATCATGTCAGCTGGATTAATTGGAGTACTTTTCGGAGTCACCTAGTGCAG,24700 fluorescence intensity (a.u.)
2,CAAGCTGATTGATCCAAAGCTACAAGAACAATCAGCTTAGCGGAGTCACCTAGTGCAG,44700 fluorescence intensity (a.u.)
3,ATGATTACTCTCATTATTAATATTATATATTATACGTGAACGGAGTCACCTAGTGCAG,18800 fluorescence intensity (a.u.)
4,ATATATAATTCATTAAAATAAATTAACGATATAACACATACGGAGTCACCTAGTGCAG,4960 fluorescence intensity (a.u.)
5,AGATGATTTGTAGCCGGTAGTTGGCTATACTATTAAACTTCGGAGTCACCTAGTGCAG,22400 fluorescence intensity (a.u.)
6,TTAATTAGACTTAATAAATTTATCTCGTAATTTGTAAGCGCGGAGTCACCTAGTGCAG,50900 fluorescence intensity (a.u.)
7,AGGGTAATTACACATTTAACCCTATTTTAAGGTCTAACTACGGAGTCACCTAGTGCAG,18400 fluorescence intensity (a.u.)
8,GTTGGATTGGCACCTTCTACCGACCGTGCACGTTCATCATCGGAGTCACCTAGTGCAG,10600 fluorescence intensity (a.u.)
9,CCCTGGAGATTAGATTGATTTCAAAGGATTACCAAGATTTCGGAGTCACCTAGTGCAG,29400 fluorescence intensity (a.u.)
10,TATAATAATTATTTAATTAATTATGTGCTAATATATCACTCGGAGTCACCTAGTGCAG,39500 fluorescence intensity (a.u.)
11,TAAAATTAATAATGAAAATGTTTTAGCTCTTACATGAGAGCGGAGTCACCTAGTGCAG,11900 fluorescence intensity (a.u.)
12,CTTTGACAGATTGGTGGGAGATAAGAGAAATGAGGAGGTGCGGAGTCACCTAGTGCAG,51900 fluorescence intensity (a.u.)
13,GACTTGATGGGTATCGTAGTAGCGGAAGCTTGTGGAGTTGCGGAGTCACCTAGTGCAG,5560 fluorescence intensity (a.u.)
14,TACCATGATTGGGCTGCAACTAAATTGACAGGTCAGCCATCGGAGTCACCTAGTGCAG,60400 fluorescence intensity (a.u.)
15,GCTGCTGAGTTAATTTTCTGCATAACTGTCAGATTGTATTCGGAGTCACCTAGTGCAG,4510 fluorescence intensity (a.u.)
16,TACAAATTTGCCACTGGGTTAAATCTATATATTGTAGGATCGGAGTCACCTAGTGCAG,4380 fluorescence intensity (a.u.)
17,AAAATATAATGAATTTGACGTTAAGATTTTAACCCTAAGTCGGAGTCACCTAGTGCAG,4200 fluorescence intensity (a.u.)
18,TCTATCTCCATTACTCAACCAATCACAACTCTTCACCATTCGGAGTCACCTAGTGCAG,6170 fluorescence intensity (a.u.)
19,CCGCAAATTAAATCACCACAACTCCTGCCCTCAAAATAATCGGAGTCACCTAGTGCAG,9540 fluorescence intensity (a.u.)
20,CAAACTAATAGACTGTAATACCCGGTGTTCTTGAGCATGGCGGAGTCACCTAGTGCAG,29400 fluorescence intensity (a.u.)
21,AATTGCGTGATTGTGCTAATCAAAATGCAGAATTGGATATCGGAGTCACCTAGTGCAG,23000 fluorescence intensity (a.u.)

row,Sequence,binding signal
1,TTGCATCAATCAGTCAATCGAGAACGGATCGGCACTCTGACGGAGTCACCTAGTGCAG,35900 fluorescence intensity (a.u.)
2,AAATTGATAAGATATATTAGTAACTAATATATCACTCCATCGGAGTCACCTAGTGCAG,7530 fluorescence intensity (a.u.)
3,AGATGACAGGAACATAGCCATGCGCATCTCTTTCAGGAGCCGGAGTCACCTAGTGCAG,5080 fluorescence intensity (a.u.)
4,ACAGCATTAGTGATTAGTGTTTAATCCGGCCCAATAATTCCGGAGTCACCTAGTGCAG,6120 fluorescence intensity (a.u.)
5,TACTGTCAATTTGCGTCTCGCTATAAATATGTTTCTGCTTCGGAGTCACCTAGTGCAG,4930 fluorescence intensity (a.u.)
6,ATAAAATTTTCATTTAAATTTGTATGAAATTTCTATTTTCCGGAGTCACCTAGTGCAG,11600 fluorescence intensity (a.u.)
7,TTTGATAGAATTTATTTCAAATAAAATCAAAATTAGCAATCGGAGTCACCTAGTGCAG,33600 fluorescence intensity (a.u.)
8,ATCAGCACAACAATAATTAATTTACGGTGCTCGGACATGACGGAGTCACCTAGTGCAG,12600 fluorescence intensity (a.u.)
9,GGTGGGACGTGGTGGGCGTCAAGGCGGCGGTGGGAGGGGACGGAGTCACCTAGTGCAG,3810 fluorescence intensity (a.u.)
10,TCAAATTTGAATCAGATATAATTTAAATTCAAATTTGAAACGGAGTCACCTAGTGCAG,13200 fluorescence intensity (a.u.)
11,ATAGATTAATATAAAATATATCACTCCGCAAACATATATACGGAGTCACCTAGTGCAG,6510 fluorescence intensity (a.u.)
12,AATCTATCCTCAATTGATTTACGAGAAAATCACGAGAAAACGGAGTCACCTAGTGCAG,3510 fluorescence intensity (a.u.)
13,CTCTCTAATTTCAGAAACTAAACACAGCCTTGGTTTAGTTCGGAGTCACCTAGTGCAG,6980 fluorescence intensity (a.u.)
14,CATCATTGAAATTTGAACACTTCTATTAATTAGATGCATTCGGAGTCACCTAGTGCAG,5050 fluorescence intensity (a.u.)
15,TAATAATTTTATTCATAAATTACTTTTCGTTTACAAATATCGGAGTCACCTAGTGCAG,3630 fluorescence intensity (a.u.)
16,GTTTTCGAATCTCGAGTTGATTGTTTTCAAATCTCAAATTCGGAGTCACCTAGTGCAG,5430 fluorescence intensity (a.u.)
17,TCATCATGTGCTAAATTAAATTGTTGATCGGAAACCAAGACGGAGTCACCTAGTGCAG,5100 fluorescence intensity (a.u.)
18,AAATTATCACTAAACCTATAGTTTTGTGATAATTTTATTACGGAGTCACCTAGTGCAG,24800 fluorescence intensity (a.u.)
19,CACGGGTTAATTAACAAAACTCAACTTGTTTCTAAGTAGGCGGAGTCACCTAGTGCAG,19000 fluorescence intensity (a.u.)
20,TAATTAATCACGTGCTAATCGATCGCTCTGGACGTGTGCACGGAGTCACCTAGTGCAG,10900 fluorescence intensity (a.u.)
21,TATATGATTAGTTTTGTAAGTAGTCTATATTTAATACTCTCGGAGTCACCTAGTGCAG,22500 fluorescence intensity (a.u.)

# Source: publication PMC7819943, “Rice protein-binding microarrays: a tool to detect cis-acting elements near promoter regions in rice”
